In patent US5143903A, “Method of treatment with tripeptide pharmaceutical compositions as immunomodulators” (priority 1989, dated 1992):
Part of at least one peptide drawing is inferred or uncertain, most often the ends. Where a SMILES comes first, the peptide text is derived from it. [ ]: non-standard residue; d: D form. pGlu = O=C1CC[C@@H](C(=O)O)N1

Key:
[1] = tested on: Mononuclear cells of peripheral human blood (PBMC); assay: Test on the proliferation of mononuclear cells; type: cell-based; parameters: key: expressing with +, ++ and +++ the substances acting as stimulants (from the least to the most effective); expressing with +, ++ and +++ the substances acting as stimulants (from the least to the most effective); expressing with +, ++ and +++ the substances acting as stimulants (from the least to the most effective); with -, -- and --- the substances inhibiting normal cell growth; with -, -- and --- the substances inhibiting normal cell growth; with -, -- and --- the substances inhibiting normal cell growth; The inactive compounds were expressed with =; separating with / the effects of the higher doses from those of the lower doses; conditions: Table 2, tritium thymidine; for Effect on cell proliferation, ACTIVATOR USED Interl. 2: PBMC activated with Interleukin 2, 6 days; for Effect on cell proliferation, ACTIVATOR USED PHA: PBMC activated with PHA, 3 days; for Effect on cell proliferation, ACTIVATOR USED PPD: PBMC activated with PPD, 6 days
Procedure: Mononuclear cells of peripheral human blood (PBMC), provided by healthy volunteers, were purified according to techniques normally used in haematology laboratories, and were finally suspended, at a concentration of 1.000.000/ml in the bed RPMI 1640 (company Flow Laboratories), enriched with 10% of heat inactivated human serum, 2 mM of glutamine and 40 mcg/ml of Gentalyn (from Shering Co.).
The cells were cultivated (100.000/pit) in triplicate on plates of 96 flat-bottomed pits, for a varying number of days according to the activating substances used (6 days for Interleukin 2 and PPD, 3 days for PHA and ConA), in 200 microliters of the suspension bed, in an incubator at 37° C. with 5% CO2. During the last 17 hours of culture the cells were marked with 0,5 microCuries of tritium thymidine (TdR). At the end of the incubation period, the radioactivity present in the cells was gathered on fiberglass filters. Embedded TdR was measured in a beta-radiation counter.
The results are expressed as arithmetic averages of the counts.
On the cells cultivated in this manner the effect of the substances derived from snake poison was tested.
Using the same methods employed in the test described above, a series of compounds having a peptide structure according to the invention, along with other control compounds, were tested for their imunomodulant activity.

macrophages = assay: Effect on macrophages; type: cell-based
T lymphocites = assay: Comparison with Interferon gamma: proliferative response of T lymphocites after presentation of B lymphocites treated with PPD; type: cell-based
Excerpt: With the aim of more detailed study of the mechanism of action, the effect of the tripeptide PYR-LEU-TRP has been compared to that of Interferon gamma as regards the stimulation of the proliferative response of T lymphocites after presentation of the B lymphocites treated with PPD.

lymphocites = assay: Effect in relation to the number of lymphocites; type: cell-based; conditions: cultures containing greatly varying levels of lymphocites
[2] = tested on: T component of the immune response; assay: In vivo test, infection with Calmette-Guerin bacillus; parameters: species or system mouse
B lymphocites = assay: Effect on B lymphocites (incubated with peptide before PPD, then put into contact with T lymphocites); type: cell-based
Interferon gamma = assay: Effect on the release of Interferon; type: cell-based; conditions: lymphocites stimulated with 100 mcg/ml
[3] = tested on: B component of the immune response; assay: In vivo test, immunization using ram erythrocytes; parameters: species or system mouse
[4] = tested on: human peripheral blood mononucleate cells (PBMC); assay: Effect on the proliferating response of PBMC after stimulation with PPD; type: cell-based; conditions: PPD 10 mcg/ml, 10 blood samples

NC(=O)C[C@H](NC(=O)[C@@H]1CCC(=O)N1)C(=O)N[C@@H](Cc1c[nH]c2ccccc12)C(=O)O [PYR--ASN--TRP] ([pGlu]-Asn-Trp-OH)
Effect on cell proliferation, ACTIVATOR USED Interl. 2 [1]: + | Effect on cell proliferation, ACTIVATOR USED PHA [1]: -

O=C(CNC(=O)[C@@H]1CCC(=O)N1)N[C@@H](Cc1ccccc1)C(=O)O [PYR--GLY--PHE] ([pGlu]-Gly-Phe-OH)
Effect on cell proliferation, ACTIVATOR USED Interl. 2 [1]: +++

CSCC[C@H](NC(=O)[C@H](Cc1c[nH]c2ccccc12)NC(=O)[C@H](CC(C)C)NC(=O)[C@@H]1CCC(=O)N1)C(=O)N[C@@H](CC(=O)O)C(=O)N[C@@H](Cc1ccccc1)C(=O)O [PYR--LEU--TRP--MET--ASP--PHE, PYR-LEU-TRP-MET-ASP-PHE] ([pGlu]LWMDF-OH)
Effect on cell proliferation, ACTIVATOR USED Interl. 2 [1]: = | Effect on cell proliferation, ACTIVATOR USED PHA [1]: -- | Effect on cell proliferation, ACTIVATOR USED PPD [1]: +++

CC[C@H](C)[C@H](NC(=O)[C@H](CCC(N)=O)NC(=O)[C@@H]1CCCN1C(=O)[C@H](CCCNC(=N)N)NC(=O)[C@@H]1CCCN1C(=O)[C@H](Cc1c[nH]c2ccccc12)NC(=O)[C@H](CC(C)C)NC(=O)[C@@H]1CCC(=O)N1)C(=O)N1CCC[C@H]1C(=O)N1CCC[C@H]1C(=O)O [PYR--LEU--TRP--PRO--ARG--PRO--GLN--ILE--PRO--PRO, reference compound] ([pGlu]LWPRPQIPP-OH)
Effect on cell proliferation, ACTIVATOR USED Interl. 2 [1]: ++ | Effect on cell proliferation, ACTIVATOR USED PHA [1]: = | Effect on cell proliferation, ACTIVATOR USED PPD [1]: =

CC(C)C[C@H](NC(=O)[C@@H]1CCC(=O)N1)C(=O)N[C@@H](Cc1c[nH]c2ccccc12)C(=O)O [PYR-LEU-TRP] ([pGlu]-Leu-Trp-OH)
Incorporation of [3H] TdR (macrophages; 0,01 mcg/plate): 6.700 | Incorporation of [3H] TdR (macrophages; 0,1 mcg/plate): 9.150 | Incorporation of [3H] TdR (macrophages; 1 mcg/plate): 14.900 | Incorporation of [3H] TdR (macrophages; 10 mcg/plate): 7.600 | Incorporation of [3H] TdR (macrophages; 100 mcg/plate): 9.600 | stimulation of the proliferative response (macrophages; over the concentrations tested, response absent outside a range): there exists a range of concentration in which the peptide is capable of stimulating the proliferative response | increase of the basal proliferative response (T lymphocites; 10 mcg/ml): approximately two and a half times | effect of the combination of tripeptide and gamma Interferon (T lymphocites; tripeptide 10 mcg/ml with gamma Interferon 1000 u/ml): do not have an additive effect | percentual increase of incorporated thymidine (lymphocites): much more evident when the lymphocites are scarce, while it tends towards zero for very high numbers of cells | response of animals rendered immunodepressed ([2]; immunodepressed by the endovenous treatment of the antigen, after administration of the tripeptide): increased significantly | potentialization of the immune response ([2]; repeated treatment with 100 mcg/mouse): significant potentialization of the immune response | Incorporation of [3H] TdR (B lymphocites; 0,1 mcg/plate): 26.000 | Incorporation of [3H] TdR (B lymphocites; 1 mcg/plate): 20.000 | Incorporation of [3H] TdR (B lymphocites; 10 mcg/plate): 21.700 | Incorporation of [3H] TdR (B lymphocites; 100 mcg/plate): 2.000 | stimulation of the proliferative response (B lymphocites; concentration range of 1 and 10 mcg/plate, inactive outside this range): strong effect of stimulation of the proliferative response | Effect on cell proliferation, ACTIVATOR USED Interl. 2 [1]: +++ | Effect on cell proliferation, ACTIVATOR USED PPD [1]: +++ | production of Interferon respect to unstimulated cells (Interferon gamma): approximately quadruple | immune response to a successive challenge ([3]; 100 mcg/mouse/i.v., suboptimal quantities of antigen): stimulating in a statistically significant manner the immune response | immune response to a successive challenge ([3]; 500 mcg/mouse/i.v., suboptimal quantities of antigen): stimulating in a statistically significant manner the immune response | immune response to a successive challenge ([3]; optimal quantities of antigen): the increase does not reach statistical significance | average value of tritium thymidine incorporated by the cells ([4]; peptide 0,01 mcg/ml): roughly doubled | average value of tritium thymidine incorporated by the cells ([4]; peptide 1 mcg/ml): roughly doubled

C[C@@H](O)[C@H](N)C(=O)N[C@@H](CCCCN)C(=O)N1CCC[C@H]1C(=O)N[C@@H](CCCNC(=N)N)C(=O)O [Tuftsin, THR--LYS--PRO--ARG, reference compound] (H-TKPR-OH)
Effect on cell proliferation, ACTIVATOR USED Interl. 2 [1]: = | Effect on cell proliferation, ACTIVATOR USED PHA [1]: = | Effect on cell proliferation, ACTIVATOR USED PPD [1]: =
